Data from the supplement of paper PMC7826260.
The other results are listed elsewhere or left out. Each Rep nickase domain was tested in vitro on the same pool of single strands (3 µM enzyme, 1 h, 37 °C); shown is the middle of each 90-letter strand. Values are log2 of uncut reads against the no-enzyme pool; more negative means more cut, near 0 not cut, and no call is made. Reads are scaled to the total; uncut strands gain when others are lost, and binding without cutting may add a little.

Experiments:
Test in all cases: uncleaved DNA left, log2 of reads against the no-enzyme library (log2 ratio); higher = less cleavage (more negative = more Rep cleavage of the k-mer); sequences stand for … in CTCGTCCG…ACCGGAGA
[1] = tested on: T1, Rep nickase domain of Muscovy duck circovirus
T1 sequence (residues 1-111 of Rep, tag left off): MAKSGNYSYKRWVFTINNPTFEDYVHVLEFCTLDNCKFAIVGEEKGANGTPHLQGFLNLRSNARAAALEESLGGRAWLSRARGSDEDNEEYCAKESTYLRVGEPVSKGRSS
Method: (§1)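 A pool of 90-nt single-stranded DNAs with seven random bases just before the constant AC of the nick site (name = the seven bases) was cut by 3 µM recombinant His6-SUMO-tagged Rep nickase domain (300 nM DNA, 50 mM HEPES pH 8.0, 50 mM NaCl, 1 mM MnCl2, 1 h, 37 °C, three replicates). Uncut DNA was amplified and sequenced.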

[2] = tested on: T2, Rep nickase domain of banana bunchy top virus
T2 sequence (residues 1-94 of Rep, tag left off): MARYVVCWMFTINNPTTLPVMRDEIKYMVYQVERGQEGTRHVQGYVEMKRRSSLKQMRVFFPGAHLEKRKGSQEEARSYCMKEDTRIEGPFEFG
Method: as §1

[3] = tested on: T3, Rep nickase domain of cabbage leaf curl virus
T3 sequence (residues 1-116 of Rep, tag left off): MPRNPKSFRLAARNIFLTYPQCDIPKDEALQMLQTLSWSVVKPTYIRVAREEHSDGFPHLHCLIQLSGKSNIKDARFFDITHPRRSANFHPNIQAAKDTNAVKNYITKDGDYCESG
Method: as §1

[4] = tested on: T4, Rep nickase domain of chickpea chlorotic dwarf virus
T4 sequence (residues 1-124 of Rep, tag left off): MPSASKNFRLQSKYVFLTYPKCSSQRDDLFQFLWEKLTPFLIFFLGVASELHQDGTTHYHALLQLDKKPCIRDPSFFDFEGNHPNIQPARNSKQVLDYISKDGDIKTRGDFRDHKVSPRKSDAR
Method: as §1

[5] = tested on: T5, Rep nickase domain of faba bean necrotic yellows virus
T5 sequence (residues 1-98 of Rep, tag left off): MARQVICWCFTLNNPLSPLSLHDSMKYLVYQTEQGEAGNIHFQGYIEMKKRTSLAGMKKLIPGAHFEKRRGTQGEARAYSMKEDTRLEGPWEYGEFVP
Method: as §1

[6] = tested on: T6, Rep nickase domain of maize striate mosaic virus
T6 sequence (residues 1-117 of Rep, tag left off): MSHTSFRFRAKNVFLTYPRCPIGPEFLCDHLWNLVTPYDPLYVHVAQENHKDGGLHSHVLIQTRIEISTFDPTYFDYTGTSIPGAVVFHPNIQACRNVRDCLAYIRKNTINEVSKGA
Method: as §1

[7] = tested on: T7, Rep nickase domain of porcine circovirus 2
T7 sequence (residues 2-116 of Rep, tag left off): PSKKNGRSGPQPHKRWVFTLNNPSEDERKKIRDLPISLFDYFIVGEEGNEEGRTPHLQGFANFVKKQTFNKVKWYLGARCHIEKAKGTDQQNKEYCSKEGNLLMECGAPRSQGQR
Method: as §1

[8] = tested on: T8, Rep nickase domain of tomato yellow leaf curl virus
T8 sequence (residues 1-136 of Rep, tag left off): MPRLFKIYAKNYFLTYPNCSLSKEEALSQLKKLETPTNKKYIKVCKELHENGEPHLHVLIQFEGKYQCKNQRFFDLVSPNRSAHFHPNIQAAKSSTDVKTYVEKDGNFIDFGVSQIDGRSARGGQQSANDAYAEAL
Method: as §1

[9] = tested on: T9, Rep nickase domain of wheat dwarf virus
T9 sequence (residues 1-137 of Rep, tag left off): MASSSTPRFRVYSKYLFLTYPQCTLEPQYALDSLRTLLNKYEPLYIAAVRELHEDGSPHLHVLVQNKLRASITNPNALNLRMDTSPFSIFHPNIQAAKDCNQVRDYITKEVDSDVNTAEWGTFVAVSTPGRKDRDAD
Method: as §1

Sequence	uncleaved DNA left (log2) [1]	uncleaved DNA left (log2) [2]	uncleaved DNA left (log2) [3]	uncleaved DNA left (log2) [4]	uncleaved DNA left (log2) [5]	uncleaved DNA left (log2) [6]	uncleaved DNA left (log2) [7]	uncleaved DNA left (log2) [8]	uncleaved DNA left (log2) [9]
ATAATCC	0.0513	-0.00873	0.326	0.0458	-0.0309	-0.5	0.0842	-0.0225	0.105
AGAGTCG	0.044	-0.00235	-0.673	-0.436	0.145	-0.833	0.177	0.00515	0.0398
TTTCACC	-0.0571	0.0318	0.0808	-0.344	-0.0373	-0.166	-0.303	0.00963	-0.0341
TCCTGGC	-0.0627	-0.19	-0.23	-0.598	-0.0561	-1.15	-0.0726	-0.14	-0.0917
AAGTCTT	-2.59	-3.21	-0.253	-2.46	-3.05	0.512	-4.19	0.0573	-0.0683
CTCTGTA	-0.152	-0.0889	-0.0869	-0.885	-0.138	-0.708	-0.31	0.0398	-0.0452
GACGTAA	-0.117	-0.0983	0.15	0.216	-0.0581	0.642	0.147	-0.0407	-0.0173
TGCTGCG	-0.00401	-0.0489	-0.337	0.898	-0.00821	0.408	0.0751	-0.325	-0.204
GCTGCCT	-0.0172	-0.0892	-0.0161	-0.0859	-0.0602	0.427	-0.13	-0.033	-0.0457
GTCGCCC	-0.155	0.0151	0.213	0.617	-0.162	1.39	-0.0258	-0.099	0.0124
ATCATTC	-0.0427	-0.335	-0.582	-0.664	-0.0493	-1.16	-0.113	-0.228	-0.299
GCAAAGT	0.0641	0.00622	-0.0215	-0.0306	0.0183	-0.671	0.0347	-0.105	0.0453
AGGAGTC	0.116	0.119	0.247	0.588	-0.0188	0.448	0.221	0.028	0.112
GCACATA	0.0101	-0.0443	0.073	0.624	-0.111	0.211	0.131	0.0357	0.0301
GTAGTGA	-0.0105	-0.0186	0.0481	0.515	-0.0769	0.495	0.05	-0.0544	-0.0724
CGCGTGT	-0.0832	-0.209	-0.212	-0.0948	-0.131	-0.0204	-0.205	-0.126	-0.237
GCACAAA	-0.0788	-0.0419	-0.0793	0.386	-0.0871	-0.0669	0.0123	0.00269	0.051
ACTTCAC	0.0175	-0.0705	-0.158	-0.438	-0.0488	-0.936	0.169	-0.0308	0.0495
CAAGTAG	-0.0527	0.032	-0.732	-0.743	0.0587	-1.24	0.152	0.0459	-0.0853
GTGACTC	0.0417	0.105	0.528	1.25	-0.028	2.04	0.118	0.0328	0.15

Sequence	uncleaved DNA left (log2) [1]	uncleaved DNA left (log2) [2]	uncleaved DNA left (log2) [3]	uncleaved DNA left (log2) [4]	uncleaved DNA left (log2) [5]	uncleaved DNA left (log2) [6]	uncleaved DNA left (log2) [7]	uncleaved DNA left (log2) [8]	uncleaved DNA left (log2) [9]
CGTTATG	0.0547	0.0924	-0.0854	0.0845	0.0775	-0.352	0.243	0.076	0.0516
TTTGTAA	0.123	0.108	0.142	-0.165	0.0508	0.05	0.149	0.111	0.0337
GTGCTTG	0.0522	0.0107	-0.112	-0.0646	-0.171	-0.209	-0.0605	0.00795	-0.0784
TACTTAA	-0.236	-0.0157	-0.182	-1.31	0.0432	-0.395	-2.53	0.0124	-0.000247
ATGCTCT	-0.0773	-0.183	-0.33	-1.96	-0.115	-0.803	-0.266	-0.0121	-0.116
GGCGGAC	-0.123	-0.0735	0.688	1.72	-0.141	2.07	0.143	0.0221	-0.0166
GATGAAA	-0.07	0.0851	0.142	0.768	-0.112	1.27	0.0608	0.0301	0.0122
AATTTTA	-2.51	-0.986	-0.269	-2.77	-0.0528	-0.656	-2.76	-0.111	-0.171
TTCCTCT	-0.0147	-0.0422	-0.122	-2.07	-0.0799	-0.454	-0.322	-0.0526	0.0174
ATTAGTC	0.0743	-0.0352	-0.0995	-0.307	0.0257	-0.954	0.0482	-0.0188	0.0425
AGCCAGA	-0.105	-0.0689	-0.00159	0.212	-0.153	-0.0535	-0.027	-0.0428	-0.125
TGGAAGC	0.0646	0.0826	0.287	0.573	0.176	0.0816	0.344	0.138	0.0838
GTTACGG	0.0612	0.054	0.565	1.53	-0.0257	2.14	0.101	-0.0675	0.0589
AATGAGC	0.0501	-0.0516	-0.284	-0.184	-0.0949	-0.47	0.0796	-0.0193	-0.0405
ACCCGTC	-0.108	-0.218	-0.0655	-0.14	-0.105	-0.819	0.0571	-0.24	-0.162
TTAATTC	0.0652	-0.0569	0.391	0.101	0.0167	-0.538	0.037	-0.0859	-0.0175
TTGACTA	0.0255	0.0475	0.194	0.286	-0.00478	0.938	-0.0123	0.0899	0.0705
CCACACC	-0.0197	-0.0717	-0.0205	-0.648	-0.14	-0.583	-0.188	-0.243	-0.0594
TTCGTCA	0.0294	-0.000114	0.0984	-0.768	-0.092	-0.361	-0.0264	-0.0385	0.0167
TGCAGCT	0.0142	-0.0667	-0.346	-1.09	-0.0103	-1.04	-0.0407	-0.0242	-0.128

Sequence	uncleaved DNA left (log2) [1]	uncleaved DNA left (log2) [2]	uncleaved DNA left (log2) [3]	uncleaved DNA left (log2) [4]	uncleaved DNA left (log2) [5]	uncleaved DNA left (log2) [6]	uncleaved DNA left (log2) [7]	uncleaved DNA left (log2) [8]	uncleaved DNA left (log2) [9]
ATTCCAC	0.0753	0.0742	-0.0376	-0.305	0.131	-0.6	-0.837	0.0646	0.072
CTCCACT	0.0546	-0.00474	-0.194	-2.14	0.157	-0.629	-0.197	0.00313	0.0787
TCCCTGC	-0.012	-0.082	-0.364	-0.591	-0.0767	-0.97	0.137	-0.0656	-0.0235
ACGTTTC	0.108	-0.0358	-0.105	-0.227	0.00722	-0.632	0.118	-0.132	-0.0369
TCTGATT	-0.0182	-0.216	-0.0319	-2.08	-0.0348	0.00918	-0.491	-0.205	-0.206
TGGCTAA	0.0187	0.0297	0.224	0.409	-0.0745	0.356	-0.111	-0.0306	0.112
TTGGTTC	0.0176	-0.0454	0.194	-0.697	-0.0452	-0.135	-0.15	-0.126	-0.146
GAAGCGT	0.00847	-0.00824	-0.644	-0.517	0.104	-0.625	0.191	0.112	-0.0228
CTCGGTT	0.0205	-0.0345	0.2	-0.67	0.0934	0.395	-0.188	-0.126	-0.0407
AGGGTTT	-0.066	0.0722	0.269	0.838	0.0364	1.48	0.0774	0.0248	0.00699
AGCACGC	-0.0922	0.0511	0.000486	0.207	-0.0664	0.0285	0.0817	-0.0611	-0.0166
GGAGATA	0.113	0.106	0.835	1.86	0.0682	2.14	0.247	0.113	0.202
AATGGAG	0.0197	-0.199	-0.461	-0.231	0.118	-0.875	0.144	-0.0634	-0.0785
ACGGAGT	0.0805	0.14	-0.249	-0.149	-0.0333	-0.558	0.00261	-0.0842	-0.104
GCTCGCC	0.00718	-0.0785	0.228	0.747	-0.072	0.547	0.0732	-0.0994	-0.0386
TCTCGGC	0.123	0.022	0.215	0.194	0.00386	-0.0256	0.164	0.043	0.0663
CTGGAAT	0.189	0.114	0.245	1.29	-0.0493	1.52	0.114	0.177	0.204
ATAGCAA	-0.105	0.0885	-0.167	-0.35	0.081	-1.05	0.0365	0.0483	0.000868
GACTTGC	-0.122	-0.0284	-0.602	-0.45	-0.123	-0.902	-0.061	-0.0987	-0.213
TTCCCTG	-0.00896	-0.101	-0.129	-0.337	-0.106	-0.108	-0.205	-0.152	-0.0845
